The source of these data is PubChem BioAssay AID488969 (Vanderbilt High Throughput Screening Facility, 2010).

In all, about 110,000 compounds were measured (“z-score”: median about -0.1, highest 2% from about 2 on). Some of the results follow.

This assay deals with Metabotropic glutamate receptor 8 (Rattus norvegicus) (UniProt P70579). In words: rat mGluR8 modulators via GIRK flux, primary screen, cell-based, thallium flux, HTS (AID 488969). The conditions noted are these: HEK293 rat mGluR8, GIRK (G protein-gated inwardly rectifying potassium channel) thallium flux, FluoZin2; at 10 µM; stronger effect = higher value; submaximal glutamate (EC20) added with thallium.
Chain of UniProt P70579 (P70579 whole entry, looked up): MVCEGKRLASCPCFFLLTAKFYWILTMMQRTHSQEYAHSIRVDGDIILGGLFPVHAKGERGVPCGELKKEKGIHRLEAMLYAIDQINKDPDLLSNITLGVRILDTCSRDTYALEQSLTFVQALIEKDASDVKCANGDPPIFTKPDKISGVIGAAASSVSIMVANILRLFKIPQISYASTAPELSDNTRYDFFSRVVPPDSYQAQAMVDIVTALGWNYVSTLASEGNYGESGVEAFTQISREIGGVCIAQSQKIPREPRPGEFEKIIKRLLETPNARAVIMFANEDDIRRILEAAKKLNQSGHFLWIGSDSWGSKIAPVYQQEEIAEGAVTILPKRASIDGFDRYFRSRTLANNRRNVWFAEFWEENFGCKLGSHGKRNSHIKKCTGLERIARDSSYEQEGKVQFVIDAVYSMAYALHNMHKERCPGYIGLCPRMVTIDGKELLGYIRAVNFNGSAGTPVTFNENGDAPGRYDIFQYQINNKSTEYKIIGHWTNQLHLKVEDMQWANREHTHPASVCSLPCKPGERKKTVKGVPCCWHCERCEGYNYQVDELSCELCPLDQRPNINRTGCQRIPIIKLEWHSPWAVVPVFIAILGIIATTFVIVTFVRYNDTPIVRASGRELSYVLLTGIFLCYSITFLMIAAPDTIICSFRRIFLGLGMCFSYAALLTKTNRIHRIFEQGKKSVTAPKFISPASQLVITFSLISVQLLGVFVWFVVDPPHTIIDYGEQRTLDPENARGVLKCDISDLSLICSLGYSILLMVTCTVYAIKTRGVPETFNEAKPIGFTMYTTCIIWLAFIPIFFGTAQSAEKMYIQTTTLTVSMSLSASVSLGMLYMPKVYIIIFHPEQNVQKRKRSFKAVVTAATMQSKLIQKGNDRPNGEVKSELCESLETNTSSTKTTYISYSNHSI
For `COc1ccc(C(C(=O)NC2CCCC2)N(C(=O)c2ccco2)c2ccc(OC)c(OC)c2)cc1` (configuration not stated), the z-score was -0.241. The result for `Cc1cc(C(=O)COC(=O)CC2Sc3ccccc3NC2=O)c(C)n1-c1ccc(Br)cc1` (configuration not stated) reads -0.0506; that for `CCCCNC(=S)N/N=C/c1ccc(OCC(=O)Nc2c(C)cc(C)cc2C)c(OC)c1`, 0.0537; that for `CCCCNC(=O)CSc1nc2ccccc2c(=O)n1CC1COc2ccccc2O1` (configuration not stated), 0.221. In the case of `Fc1cccc(CN2CCN3CCCC3C2C2CCCCC2)c1` (configuration not stated) it was -0.0575.

`CC/C(C)=C1\SC(N2CCN(c3cccc(C(F)(F)F)c3)CC2)=NC1=O` gave a z-score of -0.597.

Consider `COC(=O)c1cc(-c2cccc(OC)c2)on1`, for which the z-score was -1.1. Consider `CCC(C)c1ccc(NC(=S)NC2CCN(Cc3ccccc3)CC2)cc1` (configuration not stated), for which the z-score was determined as 0.612. The result for `O=C(COC(=O)CCNS(=O)(=O)c1ccc(Cl)cc1)NCc1ccco1` reads -0.456; that for `c1ccc2c(c1)[nH]c1c(N3CCC4(CC3)OCCO4)ncnc12`, 0.259; that for `Cc1cc(C(=O)CSc2nnc(Nc3ccccc3)s2)c(C)n1CC1CCCO1` (configuration not stated), 0.0904.

In turn, `COC(=O)c1c(NC(=O)CSc2nnc(-c3cccnc3)n2Cc2ccco2)sc(C)c1C` yielded a z-score of -1.31.

The compound `COC(=O)c1cn(-c2ccc(Cl)cc2)c(=O)c2ccccc12` displayed a z-score of -0.29. `COc1cccc(Oc2ccc(N)cc2)c1`: the z-score was 0.43.

In the case of `Cc1nc(CSc2nc3[nH]ncc3c(=O)n2-c2ccccc2)cs1`, the z-score was -0.154. In the case of `O=S(=O)(c1ccccc1)c1nc(-c2ccco2)oc1Nc1ccccc1` it was -0.162; in that of `Cc1nc(SCCCSc2n[nH]c(C)n2)n[nH]1`, -0.3. The result for `Cn1c2c(c(=O)n(C)c1=O)C(c1cccc(Br)c1)C1C(=O)c3ccccc3C1=N2` (configuration not stated) reads -0.379; that for `CC(C)OC(=O)Cn1nnc2c(cnn2-c2ccccc2)c1=O`, -1.39.

In the case of `Cc1cc(/C=N/n2cnnc2)c(C)n1-c1ccc(OCc2ccc(F)cc2)cc1`, the z-score was determined as 0.178.

`O=C(Cc1ccccc1[N+](=O)[O-])NCc1ccc(Cl)cc1Cl` showed a z-score of 0.0725. The result for `Cc1csc(SCC(=O)Nc2ccccn2)n1` reads 0.464; that for `COC(=O)[C@H](C)NC(=O)Nc1cccc(C)c1`, -0.0554; that for `Cc1cc(C(=O)N/N=C2\CCCc3ccccc32)c(C)o1`, -0.271.

In the case of `CCOC(=O)c1c(NC(=O)CSc2nc3nc(C)cc(C)n3n2)sc(CC)c1C`, the z-score is -0.454.

Compound `O=C(O)C1C2C=CC3(CN(Cc4ccccn4)C(=O)C13)O2` (configuration not stated) returned a z-score of -0.175. The result for `Cc1ccc(OCCN2CCN(c3nc(NCc4ccco4)c4ccccc4n3)CC2)cc1` reads -0.461.

Compound `O=C(COc1ccc2ccccc2c1)Nc1ccc(S(=O)(=O)N2CCCCCC2)cc1` displayed a z-score of 0.11. The result for `COc1ccc(N2CCN(CC(=O)Nc3nc4c(s3)CC(C)CC4)CC2)cc1` (configuration not stated) reads -0.243; that for `COc1ccc(S(=O)(=O)N/N=C(/C)c2ccc(Cl)cc2)cc1`, -0.182; that for `Cc1nc2ccccc2n1CC(O)COCC1CC=CCC1` (configuration not stated), -0.209. Compound `COc1ccc2c(c1)-c1c(sn(-c3ccccc3)c1=S)C(C)(C)N2` returned a z-score of -0.192. The result for `CCOC(=O)c1cc2c(=O)n3ccccc3nc2n(Cc2ccccc2)c1=N` reads -0.66; that for `CCN(CC)CCN1C(=O)c2ccccc2NC1c1ccccc1F` (configuration not stated), 0.6. The result for `Cc1cccc(OCCn2nc(C(=O)O)c3ccccc3c2=O)c1` reads -0.982. Take `N#Cc1ccc(OCc2nnc(SCC(=O)c3ccccc3)n2-c2ccccc2)cc1`: the z-score was -0.0763. In the case of `CCOC(=O)NC1(C(F)(F)F)NC(=O)N(c2ccc(F)cc2)C1=O` (configuration not stated) it was 0.301. In the case of `COC(=O)c1cc(-c2c(C)oc3cc(O)ccc3c2=O)c(C)o1` it was -0.328.

Compound `CCC(=O)OCC(=O)c1c(N)n(Cc2ccccc2)c(=O)n(C)c1=O` returned a z-score of -0.115. The compound `CC(C)CN1C(=O)C(NC(=O)C2CC2)(C(F)(F)F)C2=C1CC(C)(C)CC2=O` (configuration not stated) showed a z-score of -0.146. In the case of `CCCc1nc2oc(C(=O)OCC)c(N)c2c2c1COC(C)(C)C2` it was -0.0493; in that of `CCCCC(=O)NCc1ccc(F)cc1`, -0.121.

Turning to `CSc1ccc(/C=C(\NC(=O)c2ccc(C)cc2)C(=O)Nc2cccc(C)c2)cc1`, the z-score was -0.0678.

The compound `Cc1ccc(Oc2ccc(N)cc2)cc1` yielded a z-score of -1.41. The result for `CC(C)c1ccc(OCC(=O)N(c2ccccn2)C2CCCCC2)cc1` reads -0.397; that for `COc1ccc(N2CCN(c3ncccc3C#N)CC2)cc1`, 0.247; that for `O=C(Nc1ccc2c(c1)OCO2)c1cnn2cccnc12`, 0.317. The result for `CCOc1ncccc1C(=O)Nc1ccc(Cl)cc1` reads -1.03. The result for `CCOc1ccc(N(CC(=O)NC2CCCCCC2)S(=O)(=O)c2c(C)[nH]c(=O)[nH]c2=O)cc1` reads -0.543; that for `CCOC(=O)COc1ccc(S(=O)(=O)Nc2cccc(SC)c2)cc1`, -0.28; that for `Cc1cc(C)n2cc(CSc3nnnn3C)nc2n1`, 0.244.

The compound `Cc1csc(=N)n1-c1ccc(Cl)cc1` came in with a z-score of -0.246. As to `COc1ccc(NC(=O)CSCc2ccccc2C)cc1`, the z-score was 0.282. The result for `O=C(Cc1c[nH]c2ccccc12)NCc1ccc(Cl)cc1` reads 0.348; that for `CCCc1cc(=O)oc2cc(OCC(=O)NCc3cccs3)ccc12`, -0.204. The result for `CCc1ccc(-c2nnn(Cc3nc4ccccc4s3)n2)cc1` reads -0.303. As for `CC(C)Nc1nc(Oc2ccc(Cl)cc2Cl)cc(C(F)(F)F)n1`, the z-score was found to be 0.199. The compound `COc1ccc(OC)c(C2C(C(=O)Nc3cccnc3)=C(C)NC3=C2C(=O)CCC3)c1` (configuration not stated) showed a z-score of -0.378. `CC(C)COc1cc(=O)[nH]c(SCC(C)C)n1` showed a z-score of -0.00995. For `CC(C)Cc1nnc(NC(=O)CSc2nc(=O)cc(N)n2-c2ccccc2)s1`, the z-score was determined as 0.667.

Compound `CCOC(=O)c1ccc(NC(=O)Nc2ccc(F)cc2)cc1` yielded a z-score of -0.267. For the compound `CCNC(=S)N/N=C/c1cccs1`, the z-score was -0.0561. In the case of `CCCn1c(SCC(=O)NCCc2ccc(OC)c(OC)c2)nc2c1c(=O)n(C)c(=O)n2C` it was -0.0595; in that of `CC1OC2(C)OC(=N)C1(C#N)C(C#N)(C#N)C2c1ccccc1` (configuration not stated), -0.325; in that of `O=C(Nc1ccc(F)c(F)c1)c1cc(S(=O)(=O)N2CCN(c3ccccn3)CC2)ccc1F`, 1.13. The result for `Cc1c(Br)c(=O)oc2c(C)c(O)ccc12` reads -0.382; that for `CCCNS(=O)(=O)c1ccc(OCC(=O)NCc2ccco2)cc1`, 0.0517; that for `CCOC(=O)C(NCc1ccco1)(NC(=O)c1ccccc1)C(F)(F)F` (configuration not stated), 0.0176. In turn, `Cc1ccc2nc(NC(=O)CCCc3nc4ccccc4s3)sc2c1` gave a z-score of -0.0569. In the case of `Oc1ccccc1C1=NCCNC(C(F)(F)C(F)F)=C1` it was -0.071. In the case of `CCn1c(COc2ccc(C(C)C)cc2)nnc1SCC(=O)Nc1nccs1` it was -0.0977; in that of `O=C(NCc1ccncc1)/C(=N/O)c1ccccc1`, 1.14.
